The source gives no read counts; variants with many changes may rest on few reads.

Sequences and labels used below:
B1: LINE1-mini (parent)
chain: GGCAGAGCUCAACACAGCGUGGCAAAGUGGCUGUGGCUAGACUGCC

The series covers variants of B1. Description: self-cleavage, relative activity (ratio to wild type); higher = more cleavage; in vitro, sequencing; the parent is a self-cleaving ribozyme.
As to GGCAGAGCUCAAUACAGCGUGGCAAAGUGGCUUUUGCUAAACAGCC [C13U G33U G35U G40A U43A], the self-cleavage came to 0.1.

For the variant GGCAGAGCUCAAUACAGCGUGCCAAAGUUGCUGUGACUAGACUGCC [C13U G22C G29U G36A], the self-cleavage worked out at 0.13.

In the case of GGCAGAGCUCAAUACACCGUGGUAAUGUUGCUGUGGCUAGACUGCC [C13U G17C C23U A26U G29U], the self-cleavage was 1.16.

As for GGCAGAGCUCAAUACAGCGUGGCAAAGCGGCUGUGGCUAGACUGUC [C13U U28C C45U], the self-cleavage was found to be 0.07.

With GGCAGAGCUCAAUACAGCGUCGCAAAGUGGCUGUGGCUAGACUGUC [C13U G21C C45U], the self-cleavage turned out to be 0.08.

For GGCAGAGCUCAAUACACCGUGGCAUAGUGGCUGUGGCUAGACAGCC [C13U G17C A25U U43A], the self-cleavage worked out at 0.13.

On to GGCAGAGCUCAAUACAGCGGGGCAAAGUGGCUGUGGCUAAACUGCC [C13U U20G G40A], for which the self-cleavage came out at 0.06.

As to GGCAGAGCUCAAUACAGCGUGGCAAACUGGCUGUGGCUAGACUGCG [C13U G27C C46G], the self-cleavage is 0.34.

Regarding GGCAGAGCUCAAUACAGCGUGGCAAAGUGGCUAUGGCUACACUGCC [C13U G33A G40C], the self-cleavage worked out at 0.04.

With GGCAGAGCUCAAUACAGCGUGGCAAAGCGGCUCUGGCUAGACUGCC [C13U U28C G33C], the self-cleavage amounted to 0.01.

Regarding GGCAGAGCUCAAUACAGCGUUUCAAACAGCCUGUGGCUAGACUGCA [C13U G21U G22U G27C U28A G30C C46A], the self-cleavage was determined as 0.05.

With GGCAGAGCUCAAUACAGCGUGGCAAAGUUGUUGUGGCUAGACUGCG [C13U G29U C31U C46G], the self-cleavage was 0.06.

As for GGCAGAGCUCAAUACAGCGUGGCAAAGUGGCUGUGGCUAGACGGCA [C13U U43G C46A], the self-cleavage amounted to 0.03.

Regarding GGCAGAGCUCAAUACAGCGUAGCAAAGUGGCUCUGGCUCCACUUCC [C13U G21A G33C A39C G40C G44U], the self-cleavage was determined as 0.01.

With GGCAGAGCUCAAUACAGCGUGGCAAAGUGGCUGUUGCUCUACUGCC [C13U G35U A39C G40U], the self-cleavage is 0.11.

With GGCAGAGCUCAAUACAGCAUGGCAAAGUGACUGUGGCUAGAAUGCC [C13U G19A G30A C42A], the self-cleavage was 0.03.

As for GGCAGAGCUCAAUACAGCCUGGCAAAGAGGCUGUGGCUAGACUGCC [C13U G19C U28A], the self-cleavage came out at 0.07.

On to GGCAGAGCUCAAUACAUCGUGGCAAAGUGGCUCUGGCUAGAUUGCC [C13U G17U G33C C42U], for which the self-cleavage turned out to be 0.03.

As to GGCAGAGCUCAAUACAGCGUGGCAAAGUGGCUGUGACUAUACUGCC [C13U G36A G40U], the self-cleavage came out at 0.01.

As for GGCAGAGCUCAAUACAGCCUGGGAAAGUGGAUGUGGCUAGACUGCC [C13U G19C C23G C31A], the self-cleavage was found to be 0.05.

As for GGCAGAGCUCAAUACACCGUGGCAAAGUGGCUGUGGCUUGACUGCC [C13U G17C A39U], the self-cleavage amounted to 0.12.

In the case of GGCAGAGCUCAAUACAGCGUGGCAAAGUCGUUGUGGCUAGACUGCC [C13U G29C C31U], the self-cleavage was found to be 0.05.

Turning to GGCAGAGCUCAAUACAGCGUGGCAAAGUCGCUGUGUCUAGACUGCC [C13U G29C G36U], the self-cleavage came to 0.05.

On to GGCAGAGCUCAAUACAGCGUGGCAAAGUCGCUGUGACUAGACUGCC [C13U G29C G36A], for which the self-cleavage came out at 0.21.

With GGCAGAGCUCAAUACACCGCGGCAAAGUGGCUGUGGCUAGACUGCC [C13U G17C U20C], the self-cleavage amounted to 0.08.

As for GGCAGAGCUCAAUACAGCGUGGCAAAGUGGCUGGGGCUAGCCUGCC [C13U U34G A41C], the self-cleavage came to 0.03.

Take GGCAGAGCUCAAUACAGCGUGGCAAAGACGGUUUGCCUAGACUGCC [C13U U28A G29C C31G G33U G36C]: the self-cleavage is 0.04.

Take GGCAGAGCUCAAUACAGCGUGGCAAAGUGGCUGCGGCUCGACUGCC [C13U U34C A39C]: the self-cleavage amounted to 0.03.

With GGCAGAGCUCAAUACAUCGUGGCAAAGUGGCUGUGGCUAGAAUGCC [C13U G17U C42A], the self-cleavage was found to be 0.09.

Consider GGCAGAGCUCAAUACACCGUGGCAAUGUUGCUGUGGCUGGACUGCC [C13U G17C A26U G29U A39G], for which the self-cleavage stood at 0.3.

In the case of GGCAGAGCUCAAUACAGCGUGGCAAAGUGACUGUGGCUAGUCUGAC [C13U G30A A41U C45A], the self-cleavage was 0.04.

GGCAGAGCUCAAUACAGCGUGCCAAAGUGGCUGUGGCUUGACUGCC [C13U G22C A39U]: the self-cleavage is 0.09.

With GGCAGAGCUCAAUACAGCGUGGCAAAGUGGCUUUGGCCAGACUGCC [C13U G33U U38C], the self-cleavage amounted to 0.03.

Regarding GGCAGAGCUCAAUACAGCGUGGCAAAGGGGUUGUGGCUAAACUGCC [C13U U28G C31U G40A], the self-cleavage was determined as 0.03.

With GGCAGAGCUCAAUACAGCGUCGCAAAGUGGCUCUGGCUAGACUGCC [C13U G21C G33C], the self-cleavage came out at 0.01.

GGCAGAGCUCAAUACAUCGUGGCAACGUGGCUGUGGCUAGAUUGCC [C13U G17U A26C C42U]: the self-cleavage was determined as 0.

GGCAGAGCUCAAUACAGCGUGGCAAAGUCGCUGUGGCUAAACUGCC [C13U G29C G40A]: the self-cleavage came out at 0.03.

On to GGCAGAGCUCAAUACAGCGUGGCAAAGCGGCUGUGGCUCGAGUGCC [C13U U28C A39C C42G], for which the self-cleavage worked out at 0.05.

Consider GGCAGAGCUCAAUACAGCGAUGCAAAUUGGCUGUGGCUAGACUGCC [C13U U20A G21U G27U], for which the self-cleavage came out at 0.18.

As for GGCAGAGCUCAAUACAGCGCGGCAAAGUGGCUGUAACUAGACUGCC [C13U U20C G35A G36A], the self-cleavage is 0.01.

As to GGCAGAGCUCAAUACAGCGUGGCAAAGCGGCUGUGGCUAGACUCCC [C13U U28C G44C], the self-cleavage stood at 0.08.

As for GGCAGAGCUCAAUACAGCGUGGCAAAAUGGCUGUGGGUAGACUGCG [C13U G27A C37G C46G], the self-cleavage came out at 0.02.

GGCAGAGCUCAAUACAGCGGGGCAAAGUGGCUGUGGCUAGACUGCG [C13U U20G C46G]: the self-cleavage was 0.05.

As for GGCAGAGCUCAAUACAGCGUGGCAAAAUGUCUGUGGCUAGACUGCC [C13U G27A G30U], the self-cleavage is 0.15.

With GGCAGAGCUCAAUACAGCGUGGCAAAGUGGCUGGGGCUAGACUUCC [C13U U34G G44U], the self-cleavage was found to be 0.03.

As to GGCAGAGCUCAAUACAGCGUGGCAAAGUCGCCGUGGCUAGACUGCU [C13U G29C U32C C46U], the self-cleavage worked out at 0.04.

As for GGCAGAGCUCAAUACAGCGUGGCAAAGUGGCUGUGGCGAGACUGAC [C13U U38G C45A], the self-cleavage was found to be 0.01.

On to GGCAGAGCUCAAUACAGCGUGGCAAAGUAGCUUUGGCUUGACUGCC [C13U G29A G33U A39U], for which the self-cleavage is 0.02.

As to GGCAGAGCUCAAUACAGCUUGGCAAAGUGGCUGUGGCUACACUGAC [C13U G19U G40C C45A], the self-cleavage is 0.01.

GGCAGAGCUCAAUACAGCGGGUCAAAGUGGCUGUGGCUAGACUGCC [C13U U20G G22U]: the self-cleavage turned out to be 0.05.

As for GGCAGAGCUCAAUACAUCGCGGCAAAGAGGCUGUGGCUAGACUGCC [C13U G17U U20C U28A], the self-cleavage is 0.09.

As for GGCAGAGCUCAAUACAGCGUGGCAAAGUGGCUUUGGCUAAACUGCC [C13U G33U G40A], the self-cleavage amounted to 0.09.

For the variant GGCAGAGCUCAAUACAGCGUGACAAACUGGCUGUGGCUAGACUACU [C13U G22A G27C G44A C46U], the self-cleavage turned out to be 0.05.

On to GGCAGAGCUCAAUACAGCGUGGCAAAGUUGAUGUGGCUAGAUUGCC [C13U G29U C31A C42U], for which the self-cleavage is 0.02.

As for GGCAGAGCUCAAUACAGCGCGGCAAAGUGGCUGUGGCUAGACCGCC [C13U U20C U43C], the self-cleavage was 0.05.

Regarding GGCAGAGCUCAAUACAGCGUGGCAAAGUGUCUAUGGCUAGACUGCA [C13U G30U G33A C46A], the self-cleavage was found to be 0.03.
